ChEMBL document CHEMBL4888484, “Replenishing the malaria drug discovery pipeline: Screening and hit evaluation of the MMV Hit Generation Library 1 (HGL1) against asexual blood stage Plasmodium falciparum ,using a nano luciferase reporter read-out” (2022)
The whole screen tested about 150,000 compounds, of which about 540 (0.36%) showed an effect of 50% or more. Some of the results follow.

System: Plasmodium falciparum
Test: Primary screen in NF54 nanoGlo assay, in single point, at 2uM, 72h; a lower Z score goes with more inhibition
Type: functional, Erythrocyte
Conditions: timepoint 72 hour

| Compound | % Inhibition [%] | Z score |
| --- | --- | --- |
| COCc1nc([C@H]2CCOC2)cc(N(C)Cc2[nH]c3ccccc3c2C)n1 | 5 | -0.76 |
| O=C(c1cnc(-c2ccccn2)nc1O)N1CCC(C(=O)N2CCCC2)CC1 | -7 | 1.38 |
| COc1ccc(-c2nc(C3CCC3)n[nH]2)cc1F | -7 | 1.36 |
| O=S(=O)(Cc1ccon1)N1CCC[C@H](n2cnc3ccccc32)C1 | -13 | 2.06 |
| CN(CCCNc1ccccc1)C(=O)NCc1cccnc1 | -2 | 0.21 |
| Cc1c(C(=O)N2C[C@@H]3CC[C@H]2CN(Cc2cscn2)C3)cnc2ccnn12 | -18 | 2.27 |
| C[C@H]1CN(Cc2ccccc2OCCN2CCOCC2)CC[C@]1(O)C1CC1 | -13 | 2.01 |
| CNC(=O)Cn1ccn(-c2cccc(Cl)c2)c1=O | -9 | 1.61 |
| Cc1ccc(CNc2ncccc2C#N)c(O[C@H]2CCOC2)c1 | -9 | 0.95 |
| COc1ccc(Cl)cc1NC(=O)CN1CCC[C@H]1c1ccncc1 | -8 | 1.17 |
| Oc1nc(N2CCOC3(CCCC3)C2)ncc1F | 55 | -9.19 |
| COc1ccc(CNC(=O)N2CCCC(C3CCCCN3)C2)cc1OC(F)F (centres undefined) | 3 | -0.31 |
| O=C(Cn1c(=O)n(Cc2ccco2)c(=O)c2ccccc21)Nc1ccc(F)cc1F | -5 | 0.77 |
| COc1ccc(N2CCCN(Cc3cccc(Cl)c3)C2=O)c(NC(=O)c2cccc(C)c2)c1 | -3 | 0.51 |
| O=C(Nc1c(F)c(F)c(F)c(F)c1F)[C@H]1C[C@H]2CCCN2[C@@]12C(=O)Nc1ccccc12 | -11 | 1.1 |
| COc1ccc(Cc2n[nH]c(CC[C@H](C)N3CCOCC3)n2)cc1 | -10 | 1.14 |
| O=C(O)[C@H]1CCCN1Cc1nn(-c2ccc(F)cc2)c2c1CCC2 | -1 | 0.16 |
| Cc1ccc(Cl)c(OCCNCCO)c1 | -5 | 0.62 |
| Cc1ccc(-c2cc3c(N4CCC[C@H](C(=O)NCc5cc(F)cc(F)c5)C4)nccn3n2)c(C)c1 | -4 | 0.53 |
| CN(CCNc1cnc(C#N)cn1)c1cnc(C#N)cn1 | 3 | -0.27 |
| CC1(C)C[C@@H](c2nccn2Cc2cccc(C(=O)O)c2)CCO1 | 16 | -2.22 |

| Compound | % Inhibition [%] | Z score |
| --- | --- | --- |
| COc1ccc(-c2nc3ccc(C(=O)NCCc4ccccc4)cc3nc2-c2ccc(OC)cc2)cc1 | -6 | 1.15 |
| CN(C)c1ccc(-c2noc(CCNC(=O)c3ccccc3Cl)n2)cc1 | -4 | 0.54 |
| COCCCNC(=O)C1CN(S(=O)(=O)c2ccc(Cl)cc2)CC1c1cccc(C(F)(F)F)c1 (centres undefined) | -1 | 0.12 |
| CCCS(=O)(=O)N1CC(Oc2ccc(C)cc2)C1 | -9 | 1.24 |
| Cc1ncsc1NC(=O)C1OCC(=O)N(C)C1c1ccccc1 (centres undefined) | -8 | 1.16 |
| COc1ccc(N2C(=O)[C@H](CC(=O)NCc3cc(Cl)cc4c3OCOC4)N=C2O)cc1 | 1 | -0.15 |
| O=C(c1ccccc1-n1cnnn1)N1CCC[C@H](N2CCCCC2)C1 | 5 | -0.96 |
| CC(C)NC(=O)c1ccnc(N2CC[C@@]3(O)CCN(C(=O)N(C)C)C[C@H]3C2)c1 | -8 | 1.5 |
| O=C(c1ccc2c(c1)C(=O)N(c1ccccc1-c1ccccc1)C2=O)c1ccc2c(c1)C(=O)N(c1ccccc1-c1ccccc1)C2=O | -8 | 1.58 |
| CCN1CCOC[C@H]1C(=O)NCC1(Cc2ccccc2)CCC1 | -4 | 0.51 |
| O=C(CN(C[C@H]1CCCO1)C(=O)c1ccoc1)N1CCCC1 | 1 | -0.06 |
| N[C@H]1CCc2nc(-c3ccccc3)cn2C1 | -13 | 1.65 |
| CCc1nnc2n1CCN(Cc1ccc(-n3cccn3)cc1)C2 | -6 | 0.96 |
| Cn1c(=O)c2c(ncn2CC(=O)N2CCC[C@H]2c2ccc3c(c2)OCCCO3)n(C)c1=O | -6 | 0.79 |
| Cn1c(=O)[nH]cc(CC(=O)N2CCC[C@H](Nc3ccc(F)c(F)c3)C2)c1=O | -5 | 0.6 |
| O=C1C[C@@H]2O[C@H](CN(Cc3ccc(F)c(F)c3)C[C@@H]3CN(CCO3)C(=O)[C@@H]3C[C@@H](CN3CC3CC3)N1)[C@@H](O)[C@H]2O | 27 | -3.01 |
| C[C@@H](C1CCN(c2cc(N(C)C)ncn2)CC1)N1CCCC1 | 7 | -1.08 |
| Cc1cc(C)c(NS(=O)(=O)c2cc(-c3ccc(=O)[nH]n3)ccc2C)c(C)c1 | -1 | 0.24 |
| c1ccc(-c2csc(C3CCC3)n2)nc1 | -3 | 0.35 |
| O=C(c1ccc(Br)cc1)N1CCC(c2ccn3ncc(C(=O)N4CCCC4)c3c2)CC1 | -3 | 0.31 |
| O=C(Nc1ccc2cc[nH]c2c1)c1cc(=O)[nH]c2ccccc12 | 1 | -0.13 |

| Compound | % Inhibition [%] | Z score |
| --- | --- | --- |
| COc1ccc(C(=O)NC[C@@H](c2ccc(C)cc2)N2CCCCC2)cc1Cl | -17 | 3.35 |
| CCC(CC)(CC)S(=O)(=O)Cc1cc(C)no1 | -5 | 0.69 |
| NC(=O)c1cnc(-c2ccc(F)cc2)n(CC(=O)Nc2ccc(Cl)cc2)c1=O | -16 | 2.5 |
| Cc1cc(Br)ccc1CC(=O)N1CCCS1(=O)=O | 3 | -0.29 |
| O=S(=O)(NCC1CC1)c1cccnc1N1CC2CC2(CO)C1 (centres undefined) | 3 | -0.38 |
| CCc1cc(-c2n[nH]c(C)c2-c2ccc3c(c2)OCCO3)c(O)cc1OCc1cccc(OC)c1 | -7 | 0.89 |
| CN(C(=O)[C@H]1CCc2nnnn2CC1)c1cnn(C)c1 | 10 | -1.31 |
| CS(=O)(=O)N(Cc1ccccn1)C1CN(C(=O)NCc2ccccc2)C1 | 8 | -1.61 |
| COc1ccc(C(=O)N2CCN(C(=O)c3cccnc3)[C@@H](C(=O)N[C@H]3CCCNC3=O)C2)cc1 | -7 | 1.08 |
| CC(NC(=O)C1CCCCN1)c1cc(F)c(F)c(F)c1 (centres undefined) | 3 | -0.47 |
| O=S(=O)(c1ccc(Cl)cc1)N(c1ccccc1)C1CCN(Cc2c(F)cccc2F)CC1 | 7 | -0.87 |
| C[C@H](Nc1ccc(Cl)cc1Cl)C(=O)NCCC(=O)N(C)C | -16 | 2.32 |
| CCN(C(=O)N(C)C)c1ccccc1C | -6 | 1.15 |
| CCCNC(=O)CNc1ncc(S(=O)(=O)NCCO)cc1C(F)(F)F | -11 | 2.14 |
| Cc1nccn1CC(=O)NCC1CCN(C(=O)c2ccc3scnc3c2)CC1 | -7 | 1.03 |
| C[C@@H](C(=O)NCCc1ncc[nH]1)n1cccn1 | 1 | -0.13 |
| CCCc1cnc(C)nc1NCc1csc(N)n1 | -2 | 0.25 |
| CCN1CCN(Cc2nc3cc(NC(=O)c4ccccc4Cl)ccc3n2C(C)C)CC1 | 7 | -0.57 |
| COc1ccc(S(=O)(=O)Oc2ccccc2CN(CC2CC2)C(=O)NC(C)(C)C)cc1 | -3 | 0.31 |
| CCOC1CC(NC(C)c2cccnc2)C1Oc1ccccc1 (centres undefined) | -13 | 1.68 |
| COc1ccc(OC)c(NC(=O)CN2CCC3(CC2)N=C(c2ccc(C)c(C)c2)C(=O)N3)c1 | 1 | -0.18 |

| Compound | % Inhibition [%] | Z score |
| --- | --- | --- |
| CN(C)CC(C)(C)CNC(=O)c1cnn(-c2nccc(-c3ccccc3F)n2)c1C1CC1 | -12 | 1.57 |
| Cn1cc(CNc2ccc(F)cc2F)nn1 | -10 | 1.53 |
| Cc1ccc(C#N)c(-c2cccc(-c3ccn(Cc4ccncc4)n3)c2)n1 | -10 | 1.46 |
| CN(C)C(=O)N1CCCC[C@H]1c1nnc2n1CCN(C(=O)c1ccccn1)C2 | 1 | -0.12 |
| COCc1nc(CN2CCS(=O)(=O)C[C@@H]2C)cs1 | 4 | -0.52 |
| CNc1nc(NCc2ccccc2)nc2ccccc12 | 81 | -8.4 |
| CCOC(=O)c1cnn2cc(CNc3cc(CC)nn3C)cnc12 | -5 | 0.77 |
| O=c1ccc(N2CCN(S(=O)(=O)c3ccc4c(c3)CCCC4)CC2)nn1-c1ccc(Cl)cc1 | 13 | -1.56 |
| O=c1ccccn1Cc1cc(Cl)c2c(c1)OCCO2 | -11 | 1.67 |
| Cc1nn(C)c(C)c1-c1cc(C(C)(C)C)nc(NC2CC2)n1 | -12 | 1.49 |
| O=C(Nc1cc(C2CCCC2)[nH]n1)[C@@H]1C[C@H]2CC[C@@H]1O2 | -14 | 1.82 |
| C[C@@H]1CN(c2nccs2)CC[C@@]1(O)C1CCOCC1 | -15 | 2.96 |
| Cc1ccccc1NC(=O)c1cn(CCNCc2ccc3c(c2)OCO3)nn1 | -19 | 1.7 |
| Cc1cc(COC(=O)c2cc(Cl)c[nH]2)no1 | -2 | 0.33 |
| CCc1nn(C)c(OC)c1CN[C@H]1CCN(c2ccc(C)cc2)C1 | -6 | 0.62 |
| Cc1cccc(C)c1CNc1ccn(CC(=O)N2CCN(C)CC2)n1 | -13 | 1.21 |
| O=C(CCS(=O)(=O)Cc1noc(-c2cccs2)n1)NCc1ccccc1Cl | 33 | -3.73 |
| CS(=O)(=O)N(CC(=O)NCc1ccc2c(c1)OCO2)c1ccc(F)c(F)c1 | 31 | -3.54 |
| COC(=O)[C@@H]1C[C@H](O)CCN1C(=O)OC(C)(C)C | 33 | -4.21 |
